# Source: PubChem BioAssay AID686978 (National Center for Advancing Translational Sciences (NCATS), 2013)
# Out of some 420,000 compounds screened, about 64,000 (15%) were called active. The shares of active, inactive and inconclusive entries below differ from those in the screen. The call rests on the fitted dose curve; in most records, active means well fitted inhibition curve with a large enough effect; inconclusive means small, poorly fitted or top-dose-only effect; inactive means flat fitted curve, though single readings scatter. No potency is given beside an inconclusive call; the fits are too rough.
# Assay: qHTS for Inhibitors of human tyrosyl-DNA phosphodiesterase 1 (TDP1): qHTS in cells in absence of CPT; further: nearly all actives have a fitted effect of over 55% in size
# Settings: DT40 Tdp1-/- hTDP1 cells, no CPT, ATP luminescence, 48 h; activity change, negative = growth inhibition: at 46.2 µM (top of the series) unless noted
# Method in brief: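 Growth kinetics read by CellTiter-Glo luminescence after ≥48 hr at 37 °C. Cells: DT40 Tdp1-/- stably carrying human TDP1, 400 per well, compound exposure in the absence of CPT (DMSO vehicle).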
# On the % scale 0 is the no-effect control and ±100 the full control effect; potency means the concentration at half of the fitted maximal effect; tags describe the fitted curve by direction and shape.
Compound,Potency,"activity change, negative = growth inhibition"
CCOc1ccccc1NC(=O)CSc1ccc([N+](=O)[O-])cc1,inactive,–
C[C@H]1CN([C@@H](C)CO)C(=O)CCCn2cc(nn2)CO[C@@H]1CN(C)C(=O)Nc1ccc2c(c1)OCO2,inactive,–
C/C(=N\NC(=O)c1cc2ccccc2cc1O)c1ccccn1,active: 1.3 µM,–
Cc1ccc(C)c(N(C(=O)Cn2nnc3ccccc32)C(C(=O)NC(C)(C)C)c2ccsc2)c1 (configuration not stated),"inconclusive [inhibitor, single point]",–
COCCNC(=O)[C@H](CSCc1ccccc1)N1Cc2ccccc2C1=O,"inconclusive [inhibitor, single point]",–
C[C@H](CO)N1C[C@H](C)[C@@H](CN(C)Cc2ccc(Cl)c(Cl)c2)OCCCC[C@H](C)Oc2ccc(NC(=O)CCC(F)(F)F)cc2C1=O,active: 14.6 µM,–
Nc1c(S(=O)(=O)c2ccccc2)c2nc3ccccc3nc2n1/N=C/c1cccc(O)c1,active: 23.1 µM,–
C[C@@H]1CN(Cc2ccc3c(c2)CN(Cc2cn[nH]c2-c2ccccc2)CCO3)C[C@H](C)O1,inactive,–
CCCCNC(=O)CSc1nc(-c2ccc(OC)cc2)cc(C(F)(F)F)n1,"inconclusive [inhibitor, partial curve]",–
Clc1ncnc2[nH]ccc12,–,inconclusive: -37% [inhibitor]
OCCNc1ncnc2c1ncn2[C@H]1CN(Cc2ccc(Cl)cc2)C[C@@H](CO)O1,"inconclusive [inhibitor, partial curve]",–
CCc1ccc(-n2nc(C)c3c(C(=O)Nc4ccc(Cl)cc4)cc(C)nc32)cc1,active: 13 µM,–
Cc1ccc(O)c(NC(=O)C2CC(c3c(F)cccc3Cl)=NO2)c1 (configuration not stated),"inconclusive [inhibitor, partial curve, poor fit]",–
c1ccc2sc(NC3=NCN(C4CCCCCC4)CN3)nc2c1,"inconclusive [inhibitor, full curve, poor fit]",–
CCOC(=O)CN(Cc1ccccc1)S(=O)(=O)c1ccc(NC(C)=O)cc1,inactive,–
O=C(CCS(=O)(=O)c1ccc2c(c1)NC(=O)CS2)NCCc1ccc(Cl)cc1,"inconclusive [inhibitor, single point]",–
COC(=O)c1ccc(C(=O)OC)c(NC(=O)CSc2cccc[n+]2[O-])c1,active: 0.731 µM,–
Cc1cc2c(cc1C)C(=O)CCC2,"inconclusive [inhibitor, partial curve]",–
C1=Cc2ccccc2/C1=C\c1cc[cH-]c1.[Fe+2].c1cc[cH-]c1,"inconclusive [inhibitor, single point]",–
CCC(=O)N1c2ccccc2CC1C(=O)NCCc1ccccc1OC (configuration not stated),–,inconclusive: -30.5% [inhibitor]
COCCN(C(=O)c1ccccc1Oc1ccccc1)c1c(N)n(CC(C)C)c(=O)[nH]c1=O,inactive,–
Cc1ccc(S(=O)(=O)N(C)C[C@H]2Oc3ccc(NC(=O)Nc4c(C)noc4C)cc3CC(=O)N([C@@H](C)CO)C[C@@H]2C)cc1,inactive,–
Cc1cc(=O)c2ccccc2n1Cc1ccccc1,active: 16.4 µM,–
COc1cccc(C(=O)OCC(=O)Nc2ccc(N3CCOCC3)cc2)c1,inactive,–

Compound,Potency,"activity change, negative = growth inhibition"
CNc1cncc(-c2ccc(OC)cc2)n1,inactive,–
CCOC(=O)C1CCN(c2c(NCc3ccc(C(=O)N(C)Cc4ccccc4)cc3)c(=O)c2=O)CC1,inactive,–
CCn1cc(/C=N/N=C2\CCC3C4CCc5cc(O)ccc5C4CC[C@]23C)c(C)n1 (some centres not stated),active: 20.6 µM,–
CCN(CC)CCCNC(=O)COc1ccc2oc3c(c2c1)CCCC3,–,inconclusive: -39.2% [inhibitor]
Cc1nn(C)cc1/C=N\NC(=O)c1csc2c1CCCC2,"inconclusive [inhibitor, single point]",–
CC(=O)NCC1CCN(C(=O)C2CCC(=O)N(CCc3cccc(F)c3)C2)CC1 (configuration not stated),inactive,–
NS(=O)(=O)c1ccc(NC(=O)/C=C/c2cccc(Cl)c2)cc1,–,inconclusive: -32.6% [inhibitor]
Cc1ccc2c(c1)C(=C(C#N)C#N)CCN2,"inconclusive [inhibitor, full curve]",–
Cc1cccc[n+]1CC(=O)Nc1ccc([N+](=O)[O-])cc1Cl,inactive,–
Clc1ccc(OCCCN2CCCCC2)c(Br)c1,"inconclusive [inhibitor, single point]",–
COc1ccc(Oc2ccc(C(F)(F)F)cc2NC(=O)c2ccc(C)cc2)cc1,"inconclusive [inhibitor, single point]",–
COc1ccc(N2CC(C(=O)Nc3nc4ccc(OC)cc4s3)CC2=O)cc1 (configuration not stated),–,inconclusive: -31.3% [inhibitor]
COc1ccc(C(=O)Nc2cc(-c3nc4ncccc4o3)ccc2C)cc1Br,"inconclusive [inhibitor, partial curve]",–
CCCOC(=O)c1ccc(NC(=O)CSC2=Nc3ccccc3C3CC=NN23)cc1 (configuration not stated),"inconclusive [inhibitor, single point]",–
CCCCNC(=O)c1onc(CSc2cccc3ccccc23)c1C(=O)O,inactive,–
Cc1noc(-c2ccc(N(C)Cc3ccccc3)c([N+](=O)[O-])c2)n1,active: 16.4 µM,–
COc1ccc(S(=O)(=O)Nc2ccccc2C(=O)NN2CCOCC2)cc1OC,inactive,–
CN(C)C1=NCCN1CCCC1CCCC1,active: 11.6 µM,–
COC(=O)c1ccccc1NC(=O)CCn1c(=O)c2cccn2c2cccnc21,"inconclusive [inhibitor, single point]",–
N#C/C(=C\Nc1ccc(F)c(Cl)c1)C(=O)C1CC1,–,inconclusive: -35.2% [inhibitor]
COc1ccc(S(=O)(=O)N2CCOCC2)cc1NC(=O)CSc1cc(C)ccc1C,"inconclusive [inhibitor, single point]",–
CCOC(=O)/C=C1/SCC(=O)N1Cc1ccc(Br)cc1,"inconclusive [inhibitor, single point]",–
COc1ccc(S(=O)(=O)NCc2ccc(C(=O)N3CCN(c4ccccn4)CC3)cc2)cc1,"inconclusive [inhibitor, partial curve]",–
